In PubChem BioAssay (NCATS):
The inconclusive results got no clear call from the source; some entries with a clear call stand among them for comparison. For some assays here: Potencies beside an inconclusive call are fits to weak or partial responses and may not hold up. The source made the active and inactive calls. Unless noted, calls come from the whole dose curve; as a rule, active = well fitted curve in the direction sought with a large enough effect in the repeat runs; inconclusive = weak or mixed curves; inactive = no such curve, though single readings can be large; an effect the other way counts as inactive or inconclusive.

Legend:
[1] = qHTS Assay for Identification of Small Molecule Agonists for Hypoxia Response Element Signaling Pathway (AID 914; active = well fitted activation curve with a large enough effect in the signal ratio, with a control signal flat, not every such curve was filed as active; inconclusive = small, poorly fitted or top-dose-only effect, or effect the other way, or a change in a side signal; the % refers to the signal ratio; note: potency is the fitted concentration of half-maximal effect; for activation: top concentration of the series differs between compounds; % of control where 0% means no effect); settings: ME-180 (cervical carcinoma) HRE-bla reporter, beta-lactamase ratio, CoCl2, 17 h; activation: hits give high values
In short: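 HRE-bla ME-180 cells with beta-lactamase reporter under hypoxia response element, compounds with EC50 CoCl2 for 17 hours at 37 C. CCF4 substrate, 460nm/530nm emission ratio gave %Activity; AC50 from titration series.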

[2] = qHTS Assay for Lipid Storage Modulators (AID 1519; calls by dose curve; note: % is set by controls: 0 for no effect and ±100 for the full control effect); settings: Drosophila S3 cells, BODIPY lipid droplet/cell ratio, laser cytometry, cells loaded with oleic acid; activity change, negative = inhibition: at 57.5 µM (top of the series) unless noted
In short: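 Cells seeded at 5,000 per well were treated with compounds over a concentration series and loaded with oleic acid (400 uM, as added). Lipid droplet fluorescence (488 nm excitation, 500-530 nm channel) was read by laser-scanning cytometry and normalized to 20 uM Triacsin C.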

[3] = biological target: Cytochrome P450 2D6 (Homo sapiens) (UniProt P10635); test: Cytochrome P450 family 2 subfamily D member 6 (CYP2D6) small molecule antagonists: luciferase biochemical (cell-free) qHTS assay (AID 1645840); note: nearly all actives have a fitted effect of over 55% in size; note: potency is the fitted concentration of half-maximal effect; for activity change, negative = inhibition: % is set by controls: 0 for no effect and ±100 for the full control effect
Chain of UniProt P10635 (P10635 whole entry, looked up): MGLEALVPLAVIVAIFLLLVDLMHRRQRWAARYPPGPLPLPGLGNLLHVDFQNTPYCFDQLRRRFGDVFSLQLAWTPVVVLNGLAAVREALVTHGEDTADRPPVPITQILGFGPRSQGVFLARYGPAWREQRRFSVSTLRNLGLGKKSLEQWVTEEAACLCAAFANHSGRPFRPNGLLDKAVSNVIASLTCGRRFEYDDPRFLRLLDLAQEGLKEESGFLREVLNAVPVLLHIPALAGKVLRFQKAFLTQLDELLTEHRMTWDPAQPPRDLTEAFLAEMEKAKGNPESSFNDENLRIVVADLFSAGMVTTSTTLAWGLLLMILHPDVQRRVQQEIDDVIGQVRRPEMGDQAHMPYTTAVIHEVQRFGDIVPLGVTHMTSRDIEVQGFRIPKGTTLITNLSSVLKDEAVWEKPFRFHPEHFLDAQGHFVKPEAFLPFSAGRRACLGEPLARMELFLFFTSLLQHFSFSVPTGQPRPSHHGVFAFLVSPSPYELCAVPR
In short: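 P450-Glo luminescent screen: recombinant CYP2D6 enzyme–proluciferin substrate mix preincubated with compound 10 min at room temperature, then NADPH regeneration added for 1 h at room temperature. Detection reagent added for 20 min; luciferin light read as relative luminescence units.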

[4] = biological target: Cytochrome P450 2C9 (Homo sapiens) (UniProt P11712); test: Cytochrome P450 family 2 subfamily C member 9 (CYP2C9) small molecule antagonists: luciferase biochemical (cell-free) qHTS assay (AID 1645842); note: potency is the fitted concentration of half-maximal effect; nearly all actives have a fitted effect of over 55% in size
Chain of UniProt P11712 (P11712 whole entry, looked up): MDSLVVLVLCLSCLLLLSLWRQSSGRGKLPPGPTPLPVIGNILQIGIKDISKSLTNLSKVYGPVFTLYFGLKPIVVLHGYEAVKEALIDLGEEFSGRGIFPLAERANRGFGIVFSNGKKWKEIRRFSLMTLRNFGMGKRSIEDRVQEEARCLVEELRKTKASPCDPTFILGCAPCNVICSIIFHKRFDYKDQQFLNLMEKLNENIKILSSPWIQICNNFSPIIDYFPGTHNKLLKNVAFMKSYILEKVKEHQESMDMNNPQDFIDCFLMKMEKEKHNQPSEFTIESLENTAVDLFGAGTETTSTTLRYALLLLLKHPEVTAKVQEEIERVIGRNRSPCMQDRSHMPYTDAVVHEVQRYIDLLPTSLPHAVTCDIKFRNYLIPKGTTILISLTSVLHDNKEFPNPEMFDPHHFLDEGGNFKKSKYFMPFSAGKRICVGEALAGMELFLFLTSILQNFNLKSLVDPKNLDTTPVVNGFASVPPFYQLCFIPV
In short: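 Luminescence, after 20 min with luciferin detection reagent, reflected CYP2C9 turnover during a 1 h NADPH-driven reaction at 37C. Enzyme-substrate mix contained 0.4% bovine serum albumin and was preincubated with compound 10 min at room temperature.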
Tags give direction and shape of the fitted curve or compound fluorescence and quenching.

With `N#CCCn1c(=O)cnc2cnc(Oc3cccc(Cl)c3)nc21` the activation [1] was inconclusive: -28.4% and the activity change, negative = inhibition [2] was inconclusive: 5.52%.

With `O=C(c1cccc(F)c1)N1CCC2(CC1)CN(c1ccccc1)C2` the Potency [1] was inconclusive: 1.26 µM [inhibitor, partial curve] and the activity change, negative = inhibition [2] was inconclusive: 2.84%.

For `COc1ccc(NC(=O)c2cnc[nH]2)cc1S(=O)(=O)Nc1ccc(Br)cc1`, the Potency [3] was inconclusive: 23.9 µM [inhibitor, single point].

With `CN1CCN(c2ccnc(-c3ccoc3)n2)CC1` the activation [1] was inconclusive: 32.8% and the Potency [2] was “inactive”.

With `Cc1ccc2nc3c(cc(C#N)c(=O)n3-c3nnc(SCc4ccccc4)s3)c(=O)n2c1` the Potency [3] was “inactive”.

With `CCOc1ccc(-c2cc(NC(=O)Nc3ccccc3Cl)c(C(=O)OC)s2)cc1` the Potency [3] was “inactive”.

With `O=c1c(-c2cc(F)cc(F)c2)nc2cnc(Oc3ccccc3)nc2n1C1CC1` the activation [1] was inactive: 7.93% and the activity change, negative = inhibition [2] was inconclusive: 0.251%.

With `COCC(=O)N1CCC2(CC1)CCN(C(=O)NC(C)C)CC2` the activation [1] was inactive: -5.43% and the Potency [2] was “inactive”.

In the case of `O=C(CSc1nc2ccccc2n1Cc1cccc(Cl)c1)N1CCN(c2ccc(F)cc2)CC1`, the Potency [3] is reported as inconclusive: 6.74 µM [inhibitor, full curve].

With `Cc1nn(CC(=O)NCCc2ccccc2)c(=O)c2c1sc1ccccc12` the Potency [3] was active: 12 µM and the Potency [4] was inconclusive: 26.8 µM [inhibitor, single point].

With `CC(C)S(=O)(=O)NC[C@H](C)c1ccc(NC(=O)c2cc(F)cc(F)c2)cc1` the Potency [3] was inconclusive: 13.5 µM [inhibitor, partial curve].
